{"source": "PubChem BioAssay AID686978", "about": "(National Center for Advancing Translational Sciences (NCATS), 2013)", "note": "“And” between values parts separate entries of the source, which are not always exact repeats. Equal entries are not always repeated. In all, about 420,000 compounds went through this assay and about 64,000 (15%) were called active. This list was built around the results that the source calls inconclusive (neither active nor inactive); the mix of calls is not that of the screen. Calls come from the whole dose curve; as a rule, active = well fitted inhibition curve with a large enough effect; inconclusive = small, poorly fitted or top-dose-only effect; inactive = flat fitted curve, though single readings scatter. No potency is given beside an inconclusive call; the fits are too rough. % is set by controls: 0 for no effect and ±100 for the full control effect; potency is the fitted concentration of half-maximal effect; tags give direction and shape of the fitted curve."}
{"test": "qHTS for Inhibitors of human tyrosyl-DNA phosphodiesterase 1 (TDP1): qHTS in cells in absence of CPT; note: nearly all actives have a fitted effect of over 55% in size", "details": "DT40 Tdp1-/- hTDP1 cells, no CPT, ATP luminescence, 48 h; activity change, negative = growth inhibition: at 46.2 µM (top of the series)", "summary_of_the_method": "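Camptothecin absent (DMSO only). Human TDP1-complemented DT40 knockout cells, 400 cells/well, 37 °C for minimum 48 hr; ATP measured via CellTiter-Glo, 30 min dark incubation, luminescence.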"}
{"smiles": "Nc1cc(=O)[nH]c(SCC(=O)N2N=C(c3ccc4ccccc4c3)CC2c2ccccc2)n1", "note": "(configuration not stated)", "Potency": "inconclusive [inhibitor, single point]"}
{"smiles": "O=C(NCc1n[nH]c(=O)c2ccccc12)C1CC(=O)N(c2ccccc2)C1", "note": "(configuration not stated)", "Potency": "inconclusive [inhibitor, single point]"}
{"smiles": "O=C(Nc1ccc(-c2csc(Nc3ccc(Cl)cc3)n2)cc1)c1ccccc1", "Potency": "inconclusive [inhibitor, partial curve]"}
{"smiles": "CCn1cc(S(=O)(=O)c2ccc(C)cc2C)c(=O)c2cc(F)c(N3CCCC3)cc21", "Potency": "inconclusive [inhibitor, single point]"}
{"smiles": "CCN(Cc1ccccc1)S(=O)(=O)c1c(N)n(C)c(=O)n(C)c1=O", "Potency": "inactive"}
{"smiles": "Cc1cc(C)c(C)c(S(=O)(=O)N2CCNC(=O)C2)c1C", "Potency": "inactive"}
{"smiles": "CC(CN(C)Cc1ccccc1)OC(=O)c1cccc(F)c1", "note": "(configuration not stated)", "Potency": "inconclusive [inhibitor, single point]"}
{"smiles": "CCOc1ccc(C(=O)Nc2ccc(-c3nc4ccccc4[nH]3)cc2)cc1[N+](=O)[O-]", "Potency": "active: 11.2 µM and active: 18.4 µM"}
{"smiles": "S=c1[nH]c2ccccc2n1CCc1ccncc1", "Potency": "inconclusive [inhibitor, single point]"}
{"smiles": "CCOC(=O)C1=C(CN2CCN(C(=O)c3ccco3)CC2)NC(=O)NC1c1ccc(OC)cc1", "note": "(configuration not stated)", "Potency": "inactive"}
{"smiles": "CCC(=O)N1c2ccccc2CC1C(=O)NCCc1ccc(OC)cc1OC", "note": "(configuration not stated)", "Potency": "inconclusive [inhibitor, single point]"}
{"smiles": "CCCOc1cccn2c(N(C)C(=O)c3ccccc3F)c(CC)nc12", "Potency": "inconclusive [inhibitor, single point]"}
{"smiles": "Cc1ccc(OCCCCc2c(C)n[nH]c2C)cc1", "Potency": "inconclusive [inhibitor, single point]"}
{"smiles": "Cc1cccc(NC2=C(Cl)C(=O)OC2NC(=O)c2ccccc2)c1", "note": "(configuration not stated)", "Potency": "inactive"}
{"smiles": "CCCN1C(=O)C2(c3ccccc31)c1c(oc3cc(C)c(C)cc3c1=O)C(=O)N2CCCOC", "note": "(configuration not stated)", "Potency": "inconclusive [inhibitor, single point]"}
{"smiles": "Cc1ccc(OCC(=O)N2CCc3ccccc3C2)c(C)c1", "Potency": "inconclusive [inhibitor, single point]"}
{"smiles": "O=C(c1ccc([N+](=O)[O-])s1)N1CCN(c2ccccn2)CC1", "Potency": "active: 14.6 µM"}
{"smiles": "CCCCCc1c(-c2ccc(OC)cc2)ncn1CCc1ccccc1OC", "Potency": "active: 14.6 µM"}
{"smiles": "COc1cccc(NC(=O)COC(=O)/C=C/c2c(C)nn(-c3ccccc3)c2C)c1", "Potency": "inconclusive [inhibitor, partial curve, poor fit]"}
{"smiles": "O=C(Cc1ccc(NS(=O)(=O)c2ccc(F)cc2)cc1)NCc1ccccc1", "Potency": "active: 23.1 µM"}
{"smiles": "COc1cccc(CNC(=O)CCc2c(C)nn(-c3ccc(N4CCOCC4)nn3)c2C)c1", "Potency": "inactive"}
{"smiles": "O=C(COC(=O)CSc1ccc([N+](=O)[O-])cc1)NCCc1ccccc1", "Potency": "inactive"}
{"smiles": "COc1ccc(CNc2ncncc2-c2cccc(NS(C)(=O)=O)c2)c(OC)c1", "Potency": "inactive"}
{"smiles": "COc1ccc([N+](=O)[O-])cc1NC(=O)C(C)Sc1ccccc1", "note": "(configuration not stated)", "Potency": "inconclusive [inhibitor, single point]"}
{"smiles": "CCCCN(C(=O)C1=CC=CN2CCS(=O)(=O)N=C12)c1ccccc1", "Potency": "inconclusive [inhibitor, single point]"}
{"smiles": "CCNC(=O)c1ccc(-n2c(-c3ccccc3)cc3c2CCCCC3)cc1", "Potency": "inconclusive [inhibitor, single point]"}
{"smiles": "O=C(CC1C(=O)N(c2ccccc2)C(=O)N1CCc1cccs1)Nc1ccc(Cl)cc1", "note": "(configuration not stated)", "Potency": "inconclusive [inhibitor, single point]"}
{"smiles": "Cc1c(C(=O)Nc2cccc(C(F)(F)F)c2)oc2ccc(S(=O)(=O)N(C)C3CCCCC3)cc12", "Potency": "active: 13 µM"}
{"smiles": "COC1=C(C)C(O)=C(C(=O)/C=C/c2ccccc2)C(=O)C1(C)C", "Potency": "inconclusive [inhibitor, full curve, poor fit]"}
{"smiles": "CCOc1ccc(C(=O)Nc2cc(C)ccn2)cc1", "Potency": "active: 23.1 µM"}
{"smiles": "COc1ccc(OC)c(NC(=O)[C@H](Cc2ccccc2)N2Cc3ccccc3C2=O)c1", "Potency": "inconclusive [inhibitor, single point]"}
{"smiles": "O=C(COc1ccccc1)NCC(=O)N/N=C/c1cccs1", "Potency": "inactive"}
{"smiles": "Cc1ccc(NC(=O)Cc2noc3ccccc23)c(C)c1", "Potency": "inactive"}
{"smiles": "CC(C)OCCCNc1ncc2c(n1)CC(c1cccs1)CC2=O", "note": "(configuration not stated)", "activity change, negative = growth inhibition": "inconclusive: -34.3% [inhibitor]"}
{"smiles": "Cc1c(C)c(C)c(S(=O)(=O)N2CCSCC2)c(C)c1C", "Potency": "inconclusive [inhibitor, single point]"}
{"smiles": "CCC(C)NC(=O)CNC(=S)N(Cc1ccccc1F)C1CCCCC1", "note": "(configuration not stated)", "Potency": "inconclusive [inhibitor, single point]"}
{"smiles": "CC(OC(=O)CN1C(=O)NC2(CCCC2)C1=O)C(=O)c1ccccc1", "note": "(configuration not stated)", "Potency": "inactive"}
{"smiles": "COc1ccccc1-n1c(SCC(=O)Nc2ccccc2C)nc(O)cc1=O", "Potency": "inactive"}
{"smiles": "CCCCCc1cc(=O)oc2c(C(CCN(CC)CC)c3cc(OC)c(OC)c(OC)c3)c(OC)cc(OC)c12", "note": "(configuration not stated)", "Potency": "active: 18.4 µM"}
{"smiles": "Cc1ccc(/C=N/NC(=O)Cn2ccc(C(F)(F)F)n2)o1", "Potency": "inactive"}
{"smiles": "CCOc1ccc(N2CC(C(=O)Nc3cccc(S(=O)(=O)N4CCCCC4)c3)CC2=O)cc1", "note": "(configuration not stated)", "Potency": "inconclusive [inhibitor, single point]"}
{"smiles": "CCOC(=O)[C@H]1[C@H]2COc3ccc(Cl)cc3[C@@H]2N2C(=O)CN(Cc3ccc(F)cc3)C(=O)[C@@]12C", "Potency": "inconclusive [inhibitor, single point]"}
{"smiles": "CCOC(=O)C(=O)/C(=C\\N(C)C)c1onc(-c2ccccc2Cl)c1C(=O)OC", "Potency": "inconclusive [inhibitor, single point]"}
{"smiles": "COc1ccc(OC)c(NC(=O)CSc2nnnn2-c2ccccc2F)c1", "Potency": "inconclusive [inhibitor, single point]"}
{"smiles": "COc1cc2[nH]c(=O)n(Cc3ccc(C(=O)NC4CCCC4)cc3)c(=O)c2cc1OC", "activity change, negative = growth inhibition": "inconclusive: -30.5% [inhibitor]"}
{"smiles": "CC(=O)Nc1nonc1-c1nnc(SCc2ccc(C)cc2)n1C", "Potency": "inactive"}
{"smiles": "Cc1ccc(C)c(NC(=O)C(Sc2nc3ccc(C)cc3[nH]2)c2ccccc2)c1", "note": "(configuration not stated)", "Potency": "inconclusive [inhibitor, single point]"}
{"smiles": "CCOCCCNC(=S)Nc1ccc2nc(N3CCOCC3)cc(C)c2c1", "Potency": "inconclusive [inhibitor, single point]"}
{"smiles": "CCOC(=O)CNc1ncnc2c1nnn2C", "Potency": "inactive"}
{"smiles": "N#Cc1sc2nc(-c3ccccc3)cc(-c3ccco3)c2c1N", "Potency": "inconclusive [inhibitor, single point]"}
{"smiles": "O=C(O)COc1ccccc1/C=C1\\SC(=S)N(c2cccnc2)C1=O", "Potency": "inactive"}
{"smiles": "Cc1ccc(NC(=S)NCc2ccc3c(c2)OCO3)c(C)c1", "Potency": "active: 20.6 µM"}
{"smiles": "Cc1cccn2c(=O)c(/C=C(\\C#N)c3nc4ccccc4n3C)c(Oc3ccc(Cl)cc3)nc12", "Potency": "active: 8.2 µM"}
{"smiles": "O=C(NNC(=O)c1cc2ccccc2o1)c1ccc(F)cc1", "Potency": "inactive"}
{"smiles": "O=C(/C=C/c1ccccc1)OCCN1C(=O)c2ccccc2C1=O", "Potency": "inactive"}
{"smiles": "CC1CCN(C2=NC(=O)/C(=C/c3cn[nH]c3-c3ccccc3)S2)CC1", "Potency": "active: 14.6 µM"}
{"smiles": "COc1ccc(N2CC(C(=O)N3CCN(c4ccccc4F)CC3)CC2=O)cc1", "note": "(configuration not stated)", "Potency": "inactive"}
{"smiles": "Cc1ccc(NC(=O)C(=O)NN=C2CCCC2)cc1C", "Potency": "inactive"}
{"smiles": "CN1CCc2c(sc3nc(SCC(=O)NCc4ccco4)n(-c4ccccc4)c(=O)c23)C1", "Potency": "inconclusive [inhibitor, single point]"}
{"smiles": "Cc1ccccc1OCC(=O)Nc1ccc(Cc2ccncc2)cc1", "Potency": "inconclusive [inhibitor, partial curve]"}
{"smiles": "CCc1ccc(NC(=O)C2(C)Cc3ccccc3C(=O)O2)cc1", "note": "(configuration not stated)", "Potency": "inconclusive [inhibitor, single point]"}
{"smiles": "Nc1cc(=O)[nH]c(SCCSc2ccccc2F)n1", "Potency": "inconclusive [inhibitor, single point]"}
{"smiles": "COc1ccc(CCNC(=O)C2CC(=O)N(c3ccc(Br)cc3)C2)cc1OC", "note": "(configuration not stated)", "Potency": "inconclusive [inhibitor, single point]"}
{"smiles": "O=C(Cn1ncn2c(cc3ccccc32)c1=O)NCCCc1ccccc1", "Potency": "inactive"}
{"smiles": "N#Cc1c(NC(=O)CSc2ncc(-c3ccccc3)n2CC2CCCO2)sc2c1CCCC2", "note": "(configuration not stated)", "Potency": "inconclusive [inhibitor, single point]"}
{"smiles": "O=C(NCc1ccc(OC(F)(F)F)cc1)C1CC2Cn3c(nc4ccccc43)C2N1c1ccccc1", "note": "(configuration not stated)", "Potency": "inconclusive [inhibitor, single point]"}
{"smiles": "O=C(c1ccccc1Nc1ccc(SC(F)F)cc1)N1CCCCC1", "Potency": "inconclusive [inhibitor, single point]"}
{"smiles": "Cc1cc(C)n(CC(O)COc2ccc(C(C)C)c(C)c2)n1", "note": "(configuration not stated)", "Potency": "inconclusive [inhibitor, single point]"}
{"smiles": "O=S1(=O)CCOC[C@H](CC2CCCCC2)N1Cc1cccc(Cl)c1", "Potency": "active: 11.2 µM"}
{"smiles": "NC(=O)c1ccc2c(=O)n3c(-c4cc(Cl)c(N)c(Cl)c4)csc3nc2c1", "Potency": "active: 18.4 µM"}
{"smiles": "CC1C(=O)N2CCCc3cc(S(=O)(=O)Nc4ccc(Br)cc4F)cc1c32", "note": "(configuration not stated)", "Potency": "inactive"}
{"smiles": "CCOc1cc(-c2nnc(SCC(=O)NCc3ccc(C)cc3)nc2-c2ccc(OC)c(OCC)c2)ccc1OC", "Potency": "inconclusive [inhibitor, single point]"}
